Compound in this test: FC(F)c1nc2ccccc2n1-c1nc(N2CCOCC2)nc(N2CCOCC2)n1 [ZSTK474]
Description: Viability of human cancer cell lines after 72 h of drug (GDSC screen). The protocol: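 Human cancer cell lines in 384-well plates, medium with 10% serum, drug for 72 h over a 256-fold dose range (nine 2-fold or five 4-fold steps up to the top dose). Adherent lines were fixed and stained with the nucleic acid dye Syto60, suspension lines read with resazurin; signal relative to control wells, capped at 0 and 100%. One two-parameter sigmoid per drug and line, fitted in a mixed model over all curves with the slope shared within a line.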

IC50 is the fitted dose that halves viability relative to control wells, and lower means more sensitive; fits outside the tested doses are given as limits. For AUC the same curve is integrated over the 256-fold range of doses and scaled to a fraction: 1 means no effect, lower means more sensitive.

The term IC50 denotes the midpoint of a concentration-inhibition curve. With “LOXIMVI (melanoma, semi-adherent, top dose 5.12 µM)”, the AUC amounted to 0.873 and the half-maximal inhibitory concentration (IC50) stood at 4010 nM.

On to “LP-1 (myeloma, suspension, top dose 5.12 µM)”, for which the AUC was determined as 0.543 and the 50% inhibitory concentration (IC50) was 411 nM.

With “LS-123 (large intestine, adherent, top dose 5.12 µM)”, the AUC amounted to 0.705 and the IC50 was found to be 1480 nM.

With “LS-180 (large intestine, adherent, top dose 5.12 µM)”, the AUC was 0.869 and the IC50 is above 5120 nM.

“LS-411N (large intestine, adherent, top dose 5.12 µM)”: the AUC turned out to be 0.65 and the 50% inhibitory concentration (IC50) came out at 915 nM.

For “LS-513 (large intestine, adherent, top dose 5.12 µM)”, the AUC was 0.793 and the IC50 is 2450 nM.

With “LS-1034 (large intestine, adherent, top dose 5.12 µM)”, the AUC was 0.784 and the IC50 was determined as 2420 nM.

As to “LU-65 (large cell lung carcinoma, suspension, top dose 5.12 µM)”, the AUC is 0.711 and the IC50 is 1420 nM.

As to “LU-99A (large cell lung carcinoma, adherent, top dose 5.12 µM)”, the AUC turned out to be 0.901 and the IC50 is above 5120 nM.

As for “LU-134-A (small cell lung carcinoma, suspension, top dose 5.12 µM)”, the AUC was determined as 0.808 and the IC50 was 2850 nM.

Take “LU-135 (small cell lung carcinoma, suspension, top dose 5.12 µM)”: the AUC is 0.969 and the IC50 was above 5120 nM.

In the case of “LU-139 (small cell lung carcinoma, suspension, top dose 5.12 µM)”, the AUC was determined as 0.786 and the IC50 worked out at 2910 nM.

On to “LU-165 (small cell lung carcinoma, suspension, top dose 5.12 µM)”, for which the AUC was 0.868 and the IC50 was above 5120 nM.

Take “LXF-289 (lung adenocarcinoma, adherent, top dose 5.12 µM)”: the AUC was 0.757 and the IC50 is 1740 nM.

Turning to “LoVo (large intestine, adherent, top dose 5.12 µM)”, the AUC was found to be 0.925 and the IC50 is above 5120 nM.

Turning to “M14 (melanoma, adherent, top dose 5.12 µM)”, the AUC is 0.955 and the 50% inhibitory concentration (IC50) was above 5120 nM.

Regarding “M059J (glioma, adherent, top dose 5.12 µM)”, the AUC worked out at 0.803 and the IC50 is 2800 nM.

Turning to “MC116 (B-cell lymphoma, suspension, top dose 5.12 µM)”, the AUC was 0.449 and the IC50 is 241 nM.

Turning to “MC-CAR (haematopoietic neoplasm, suspension, top dose 5.12 µM)”, the AUC was found to be 0.301 and the IC50 is 94.8 nM.

For the cell line “MC-IXC (neuroblastoma, adherent, top dose 5.12 µM)”, the AUC stood at 0.908 and the 50% inhibitory concentration (IC50) was determined as 3660 nM.

Regarding “MCF7 (breast, adherent, top dose 5.12 µM)”, the AUC is 0.986 and the IC50 is above 5120 nM.

Take “MDA-MB-157 (breast, adherent, top dose 5.12 µM)”: the AUC was 0.978 and the IC50 was above 5120 nM.

Take “MDA-MB-175-VII (breast, adherent, top dose 5.12 µM)”: the AUC stood at 0.617 and the IC50 was 695 nM.

For the cell line “MDA-MB-231 (breast, adherent, top dose 5.12 µM)”, the AUC was found to be 0.929 and the half-inhibitory concentration (IC50) was above 5120 nM.

As to “MDA-MB-330 (breast, adherent, top dose 5.12 µM)”, the AUC stood at 0.824 and the half-maximal inhibitory concentration (IC50) stood at 3610 nM.

As to “MDA-MB-361 (breast, adherent, top dose 5.12 µM)”, the AUC worked out at 0.687 and the IC50 worked out at 1060 nM.

In the case of “MDA-MB-415 (breast, adherent, top dose 5.12 µM)”, the AUC was found to be 0.898 and the IC50 was above 5120 nM.

On to “MDA-MB-436 (breast, adherent, top dose 5.12 µM)”, for which the AUC came to 0.937 and the IC50 was above 5120 nM.

Turning to “MDA-MB-453 (breast, adherent, top dose 5.12 µM)”, the AUC amounted to 0.551 and the IC50 was 448 nM.

Take “MDST8 (large intestine, adherent, top dose 5.12 µM)”: the AUC was found to be 0.867 and the IC50 is 4570 nM.

Turning to “ME-1 (acute myeloid leukaemia, suspension, top dose 5.12 µM)”, the AUC was determined as 0.924 and the IC50 was above 5120 nM.

With “ME-180 (cervix, adherent, top dose 5.12 µM)”, the AUC was 0.586 and the IC50 came out at 556 nM.

As to “MEG-01 (chronic myeloid leukaemia, suspension, top dose 5.12 µM)”, the AUC is 0.744 and the IC50 was determined as 1520 nM.

For the cell line “MEL-JUSO (melanoma, adherent, top dose 5.12 µM)”, the AUC stood at 0.792 and the IC50 came out at 2640 nM.

Turning to “MES-SA (uterus, adherent, top dose 5.12 µM)”, the AUC came out at 0.868 and the concentration for half-maximal inhibition (IC50) was found to be 3560 nM.

On to “MFE-280 (endometrium, adherent, top dose 5.12 µM)”, for which the AUC is 0.566 and the half-inhibitory concentration (IC50) amounted to 509 nM.

Take “MFE-296 (endometrium, adherent, top dose 5.12 µM)”: the AUC came to 0.83 and the 50% inhibitory concentration (IC50) amounted to 3530 nM.

As for “MFE-319 (endometrium, adherent, top dose 5.12 µM)”, the AUC was found to be 0.78 and the IC50 worked out at 2040 nM.

“MFH-ino (soft tissue, adherent, top dose 5.12 µM)”: the AUC came out at 0.825 and the IC50 was found to be 3800 nM.

Regarding “MFM-223 (breast, adherent, top dose 5.12 µM)”, the AUC turned out to be 0.921 and the IC50 is above 5120 nM.

In the case of “MG-63 (osteosarcoma, adherent, top dose 5.12 µM)”, the AUC was 0.977 and the IC50 was above 5120 nM.

With “MHH-ES-1 (Ewing sarcoma, adherent, top dose 5.12 µM)”, the AUC is 0.493 and the 50% inhibitory concentration (IC50) is 305 nM.

Turning to “MHH-NB-11 (neuroblastoma, adherent, top dose 5.12 µM)”, the AUC stood at 0.935 and the IC50 is above 5120 nM.

On to “MHH-PREB-1 (B-cell leukaemia, suspension, top dose 5.12 µM)”, for which the AUC was determined as 0.611 and the 50% inhibitory concentration (IC50) stood at 624 nM.

With “MIA-PaCa-2 (pancreas, adherent, top dose 5.12 µM)”, the AUC stood at 0.908 and the concentration for half-maximal inhibition (IC50) was above 5120 nM.

With “MKN1 (stomach, adherent, top dose 5.12 µM)”, the AUC was found to be 0.76 and the IC50 amounted to 1890 nM.

For the cell line “MKN28 (stomach, adherent, top dose 5.12 µM)”, the AUC is 0.935 and the IC50 is above 5120 nM.

Turning to “MKN45 (stomach, adherent, top dose 5.12 µM)”, the AUC turned out to be 0.746 and the 50% inhibitory concentration (IC50) is 2000 nM.

Regarding “ML-1 (thyroid, adherent, top dose 5.12 µM)”, the AUC came to 0.875 and the 50% inhibitory concentration (IC50) is above 5120 nM.

For “ML-2 (acute myeloid leukaemia, suspension, top dose 5.12 µM)”, the AUC came to 0.267 and the half-maximal inhibitory concentration (IC50) is 75.8 nM.

For “MLMA (hairy cell leukaemia, semi-adherent, top dose 5.12 µM)”, the AUC stood at 0.249 and the IC50 was 60.5 nM.

Regarding “MMAC-SF (melanoma, adherent, top dose 5.12 µM)”, the AUC is 0.729 and the IC50 came to 1480 nM.

On to “MN-60 (B-cell leukaemia, suspension, top dose 5.12 µM)”, for which the AUC worked out at 0.503 and the 50% inhibitory concentration (IC50) is 326 nM.

Regarding “MOG-G-CCM (glioma, adherent, top dose 5.12 µM)”, the AUC turned out to be 0.965 and the IC50 was above 5120 nM.

For “MOLM-13 (acute myeloid leukaemia, suspension, top dose 5.12 µM)”, the AUC was determined as 0.33 and the half-maximal inhibitory concentration (IC50) stood at 111 nM.

In the case of “MOLP-8 (myeloma, suspension, top dose 5.12 µM)”, the AUC stood at 0.286 and the concentration for half-maximal inhibition (IC50) amounted to 81.4 nM.

For the cell line “MOLT-4 (lymphoblastic leukaemia, suspension, top dose 5.12 µM)”, the AUC turned out to be 0.374 and the IC50 was determined as 154 nM.

For “MOLT-13 (T-cell lymphoblastic leukaemia, suspension, top dose 5.12 µM)”, the AUC stood at 0.897 and the 50% inhibitory concentration (IC50) turned out to be 5030 nM.

Turning to “MONO-MAC-6 (acute myeloid leukaemia, suspension, top dose 5.12 µM)”, the AUC was determined as 0.332 and the IC50 came to 106 nM.

Turning to “MPP-89 (mesothelioma, adherent, top dose 5.12 µM)”, the AUC amounted to 0.936 and the IC50 was above 5120 nM.

For “MRK-nu-1 (breast, suspension, top dose 5.12 µM)”, the AUC came to 0.94 and the IC50 was above 5120 nM.

Take “MS751 (cervix, adherent, top dose 5.12 µM)”: the AUC stood at 0.978 and the concentration for half-maximal inhibition (IC50) was above 5120 nM.

As for “MS-1 (small cell lung carcinoma, suspension, top dose 5.12 µM)”, the AUC worked out at 0.772 and the 50% inhibitory concentration (IC50) amounted to 1770 nM.

Regarding “MSTO-211H (mesothelioma, adherent, top dose 5.12 µM)”, the AUC came out at 0.977 and the half-inhibitory concentration (IC50) is above 5120 nM.

Turning to “MV-4-11 (leukaemia, suspension, top dose 5.12 µM)”, the AUC came to 0.429 and the concentration for half-maximal inhibition (IC50) stood at 212 nM.
